From publication PMC3052287 (Psychopharmacology, 2010)
Like-named read-outs stand apart in the source and are kept apart here.

How the values were obtained:
[1] = target: T1, h5-HT7 receptor (Homo sapiens, UniProt P34969)
[2] = target: T1, h5-HT7 receptor; conditions: 1 μM mesulergine after inactivator and wash; 10 μM 5-HT
[3] = target: T1, h5-HT7 receptor; conditions: cited from earlier work
[4] = target: T1, h5-HT7 receptor; conditions: cited from earlier work; remark: listed apart in the source
[5] = intact cells exposed to 1 μM drug 30 min, washed, homogenized, 2 nM [3H]5-HT
[6] = intact cells, ref Smith et al. 2006, Knight et al. 2009

T1 sequence (P34969 whole entry): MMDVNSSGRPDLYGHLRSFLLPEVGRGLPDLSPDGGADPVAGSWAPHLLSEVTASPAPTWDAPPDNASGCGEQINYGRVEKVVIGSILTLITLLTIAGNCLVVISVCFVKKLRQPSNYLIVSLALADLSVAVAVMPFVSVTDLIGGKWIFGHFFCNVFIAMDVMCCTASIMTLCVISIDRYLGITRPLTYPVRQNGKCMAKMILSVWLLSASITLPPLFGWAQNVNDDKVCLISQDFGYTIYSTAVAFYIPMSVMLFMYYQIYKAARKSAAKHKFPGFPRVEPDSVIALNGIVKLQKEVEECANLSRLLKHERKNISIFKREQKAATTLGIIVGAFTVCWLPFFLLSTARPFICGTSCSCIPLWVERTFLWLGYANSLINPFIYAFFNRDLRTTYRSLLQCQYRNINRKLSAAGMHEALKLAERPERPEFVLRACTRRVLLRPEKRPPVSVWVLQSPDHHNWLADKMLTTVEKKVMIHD

CN1C[C@@H](NS(=O)(=O)N(C)C)C[C@@H]2c3cccc4c3c(cn4C)C[C@H]21 [mesulergine]
wash-resistant inhibition of [3H]5-HT binding [1, 5]: did not affect binding | reactivation of 9-OH-risperidone-inactivated receptors [2]: able to reactivate | reactivation of bromocriptine-inactivated receptors [2]: not able to reactivate | reactivation of methiothepin-inactivated receptors [2]: not able to reactivate | reactivation of risperidone-inactivated receptors [2]: able to reactivate

Cc1nc2n(c(=O)c1CCN1CCC(c3noc4cc(F)ccc34)CC1)CCCC2 [risperidone]
wash-resistant inhibition of [3H]5-HT binding [1]: 50% | share of h5-HT7 binding sites bound in a wash-resistant manner [3]: 50%

Cc1nc2n(c(=O)c1CCN1CCC(c3noc4cc(F)ccc34)CC1)CCCC2O (stereo not shown) [9-OH-risperidone]
inactivation of the h5-HT7 receptor (loss of 5-HT-stimulated cAMP accumulation) [4, 6]: inactivate the h5-HT7 receptor | wash-resistant inhibition of [3H]5-HT binding [1, 5]: 50% | share of h5-HT7 binding sites bound in a wash-resistant manner ([3]; intact cells, ref Knight et al. 2009): 50%

CN1C[C@H](CNC(=O)OCc2ccccc2)C[C@@H]2c3cccc4c3c(cn4C)C[C@H]21 [metergoline]
inactivation of the h5-HT7 receptor (loss of 5-HT-stimulated cAMP accumulation) [4, 6]: inactivate the h5-HT7 receptor

CC(C)C[C@H]1C(=O)N2CCC[C@H]2[C@]2(O)O[C@](NC(=O)[C@@H]3C=C4c5cccc6[nH]c(Br)c(c56)C[C@H]4N(C)C3)(C(C)C)C(=O)N12 [bromocriptine]
inactivation of the h5-HT7 receptor (loss of 5-HT-stimulated cAMP accumulation) [4]: inactivate the h5-HT7 receptor | wash-resistant inhibition of [3H]5-HT binding [1]: all of the binding
